Measurements reported in PubChem BioAssay AID1159614 (National Center for Advancing Translational Sciences (NCATS), 2016).
Hit rate of the full screen: of about 45,000 compounds, about 65 (0.1%) were called active. The call rests on the fitted dose curve; in most records, active means well fitted activation curve with a large enough effect; inconclusive means small, poorly fitted or top-dose-only effect; inactive means no such curve, though single readings can be large or run the other way. The list shows a part of the results.

These molecules were tested against Galactocerebrosidase (Homo sapiens) (UniProt P54803) (assay: A Novel Cell-Based Assay to Identify Small Molecules for B -Galactocerebrosidase). Conditions: 145M-Twi-hGALC-G270D cells (Twitcher mouse brain line with human GALC G270D), HMU-beta-Gal fluorescence, 48 h; series mostly up to 57.5 µM; activation: at the top concentration.
Chain of UniProt P54803 (P54803 whole entry, looked up): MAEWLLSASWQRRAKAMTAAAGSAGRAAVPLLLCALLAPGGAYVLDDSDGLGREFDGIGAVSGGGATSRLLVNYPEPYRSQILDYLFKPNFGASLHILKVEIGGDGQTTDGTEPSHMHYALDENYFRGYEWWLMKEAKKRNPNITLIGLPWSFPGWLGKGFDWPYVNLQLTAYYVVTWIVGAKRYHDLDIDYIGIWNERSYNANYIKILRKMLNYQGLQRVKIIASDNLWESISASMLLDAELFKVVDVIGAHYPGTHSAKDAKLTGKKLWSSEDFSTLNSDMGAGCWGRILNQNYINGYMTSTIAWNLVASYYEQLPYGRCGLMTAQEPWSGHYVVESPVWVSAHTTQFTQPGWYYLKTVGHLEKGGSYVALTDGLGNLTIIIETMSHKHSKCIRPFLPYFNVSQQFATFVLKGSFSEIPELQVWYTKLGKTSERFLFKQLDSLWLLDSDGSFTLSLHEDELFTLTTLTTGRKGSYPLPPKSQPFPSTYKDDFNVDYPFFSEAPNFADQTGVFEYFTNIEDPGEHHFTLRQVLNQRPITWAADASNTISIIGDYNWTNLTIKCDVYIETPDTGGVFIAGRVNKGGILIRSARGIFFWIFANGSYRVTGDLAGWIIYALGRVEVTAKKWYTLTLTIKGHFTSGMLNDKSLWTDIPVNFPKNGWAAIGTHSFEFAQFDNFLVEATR
Outline: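 Brain-derived Twitcher mouse 145M-Twi cells stably expressing human GALC-G270D or wild-type GALC, treated live, then residual GALC activity read by fluorescence of HMU-b-Gal substrate (0.1 mM final) in citrate-phosphate buffer pH 5.2 with sodium taurocholate. Signal increase indicates enhancement.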
Further: 0% is about no effect; nearly all actives have a fitted effect of over 65% in size.

activation, inactive:
Cc1nnc2c(N3CCN(c4ccc(F)cc4)CC3)nc3ccc(C(=O)c4ccccc4)cc3n12 -11.1%
O=C(CN1C(=O)C2(SCC(=O)N2c2cccc(F)c2)c2ccccc21)NCCc1ccccc1 (stereo not drawn) -14.7%
O=C(CCOCCOCCOCCOCCC(=O)Nc1c(I)cc(I)c(C(=O)O)c1I)Nc1c(I)cc(I)c(C(=O)O)c1I -5.02%
CCOC(=O)c1cnc(N2CCN(c3cccc(C)c3C)CC2)c2ccccc12 -12.8%
O=C(NCCc1csc(-c2cccnc2)n1)c1ccccc1 -9.13%
CCOC(=O)c1cc(-c2ccc(OC)c(S(=O)(=O)NCc3ccccc3Cl)c2)on1 -15.6%
CC1CCCCN1CCCNC(=O)CN1C(=O)CSc2ccc(S(=O)(=O)N3CCOCC3)cc21 (stereo not drawn) -4.28%
CCc1ccc(NC(=O)Nc2ccccc2OCc2cc(=O)n3ccccc3n2)cc1 -7.69%
COc1ccc(OC)c(NC(=O)Cn2ccn(-c3ccc(OC)c(OC)c3)c(=O)c2=O)c1 -5.78%
CCc1c(C)sc2c1CCN(C(=O)Nc1ccccc1C(=O)OC)C2c1ccc(OC)cc1 (stereo not drawn) -18.9%
Cc1ccc(NS(=O)(=O)c2ccc3c(c2)CC(=O)N3)cc1Cl -20.5%
COc1ccc(C)cc1NC(=O)c1c2c(nc3ccccc13)C(=O)N(C1CCCCC1)C2 -14.7%
Cc1ccc(Cl)cc1NC(=O)C(Cc1ccccc1)NS(=O)(=O)c1cccc2nsnc12 (stereo not drawn) -12.5%
CCOc1ccc(Br)cc1C1C(C(=O)OC)=C(C)NC2=C1C(=O)c1ccccc12 (stereo not drawn) -21.2%
CCN(C(=O)CSc1ncc2c(n1)-c1cc(Cl)ccc1N(Cc1ccccc1)S2(=O)=O)c1cccc(C)c1 -13.1%
Cc1ccc(-c2cc3ncc(C(=O)c4cc(Cl)c(C)cc4O)cn3n2)cc1 -6.87%
NC(=O)c1ncn([C@@H]2O[C@H](CO)[C@@H](O)[C@H]2O)n1 -2.25%
CCn1c(=O)cc(OCC(=O)N(C)c2ccc(OC)cc2)c2ccccc21 -14%
CCOc1ccc(NC(=O)CN2C(=O)C(c3ccc(Cl)cc3)=NC2(C)C)cc1 -23.5%
CCC(=O)N1CCc2cc(Br)cc(S(=O)(=O)N3CCCC(C(=O)Nc4cc(C)ccc4OC)C3)c21 (stereo not drawn) 9.5%
O=C(NCc1ccc(Cl)cc1)C1=Cc2cc(Br)ccc2OC1 -8.43%
Cc1ccc(Cl)cc1N1CCN(C(=O)c2cc3ccc4cccnc4c3[nH]2)CC1 -2.34%
CC(C)c1ccc(C2=CC(c3cccc(Cl)c3)n3c(nc4ccccc43)N2)cc1 (stereo not drawn) -18.4%
CCC(CC)(CC(=O)Nc1cccc(/C=C/c2nc(C3CCC3)cs2)c1)C(=O)O -12.7%
COc1ccc(Cl)cc1C(=O)Nc1ccc2nc(Nc3cccc(Cl)c3)cc(C)c2c1 -6.88%
CCCc1ccc(S(=O)(=O)N2CCC(c3nnc(-c4cccc(C)c4)o3)CC2)cc1 3.73%
COc1cc(OC)c(NC(=O)c2c(N3CCCC3=O)c3cc(C)ccc3n2C)cc1Cl -10.1%
COc1ccc(OC)c(CNC(=O)c2ccc3nc(C(C)C)oc3c2)c1 1.62%
CC(C)Oc1ccc(CNC(=O)c2ccc3c(c2)nc2n3CCCCC2)cc1 -24.1%
CCOc1ccccc1NC(=O)Cn1ncc2c([nH]c3ccccc32)c1=O -8.35%
CCn1c(=O)c2cc(C(=O)NCCCN3CCN(c4ccc(F)cc4)CC3)sc2c2ccccc21 -25.7%
Cc1ccccc1OCC(=O)Nc1nnc(S(=O)(=O)N2CCCC2)s1 -5.71%
CCOc1ccc(N2CC(c3nc4ccccc4n3CCCCOc3ccc(OC)cc3)CC2=O)cc1 (stereo not drawn) -19.6%
Cc1cc(=O)n2nc(N3CCC(C(=O)Nc4c(C)cccc4C)CC3)sc2n1 -10%
COc1ccc(C2=C(C)C(=O)N(Cc3ccc(C(=O)NC(C)c4ccccc4)cc3)S2(=O)=O)cc1 (stereo not drawn) -13.1%
CCOC(=O)[C@H](CCc1ccccc1)N[C@@H](C)C(=O)N1[C@H](C(=O)O)C[C@@H]2CCC[C@@H]21 -16.4%
Cc1cccc(OC(C)C(=O)Nc2nonc2-c2ccc(Br)cc2)c1C (stereo not drawn) -12.8%
O=C(NC1CCCCCC1)C1c2ccccc2C(=O)N1Cc1ccc(F)cc1 (stereo not drawn) -16.6%
COc1ccc(CNC(=O)CN2C(=O)CSc3ccc(S(=O)(=O)N(C)C)cc32)cc1 -11.4%
Cc1cccc(N2C(=O)CSC23C(=O)N(CC(=O)Nc2cccc(Cl)c2)c2ccccc23)c1 (stereo not drawn) -18.4%
CC1CCN(S(=O)(=O)c2cc3c4c(c2)C(C)C(=O)N4CCC3)CC1 (stereo not drawn) -15.3%
CCN(CC)c1ccc(NC(=O)CN2CCN(c3ccccc3OC)CC2)cc1 -16.7%
Oc1c(C(c2ccccc2)N2CCOCC2)sc2nc(-c3ccco3)nn12 (stereo not drawn) -12.8%
CCc1cccc(NC(=O)Cn2c(=O)n(CCC(=O)NCc3ccccc3Cl)c(=O)c3sccc32)c1 0.55%
CCOC(=O)c1cc(C)n(CC2CCC(C(=O)Nc3cccc(Cl)c3)CC2)c1C (stereo not drawn) -2.51%
Cc1cc(C)cc(NC(=O)c2sc3nc4n(c(=O)c3c2C)N=C(c2ccccc2)CS4)c1 -17.5%
Nc1c(C(=O)Nc2cccc(F)c2)nnn1-c1cccc(C(F)(F)F)c1 -13.3%
COc1ccccc1C(=O)Nc1cccc(C(=O)OCc2cc(=O)n3cc(C)sc3n2)c1 -7.34%
CCOC(=O)c1c(C)[nH]c(C)c1S(=O)(=O)N1CCC(C(=O)Nc2cc(Cl)ccc2OC)CC1 1.16%
Cc1cc(C)c(NC(=O)c2sc3nc(C)cc(C)c3c2NC(=O)c2ccccc2)c(C)c1 0.888%
CC1=C(c2ccc(C)c(C)c2)S(=O)(=O)NC1=NCc1ccccc1Cl 4.86%
CCOc1ccc(CCNC(=O)c2cn(C)c3ccc(S(=O)(=O)N4CCCCC4)cc3c2=O)cc1OCC -13.9%
CCOC(=O)c1sc2ncn(CC(=O)Nc3ccc(OCC)cc3)c(=O)c2c1C -13%
COc1ccc(-c2nc(C)c(CCNS(=O)(=O)c3cc(Cl)ccc3Cl)s2)cc1 -30.5%
Cc1c(C(=O)Nc2cccc(C(F)(F)F)c2)oc2ccc3c(c12)C(=O)CC(C)(C)O3 -10.4%
CCC(=O)N1c2ccccc2CC1C(=O)NCCc1ccc(OC)c(OC)c1 (stereo not drawn) -7.07%
CCc1nn2c(=O)cc(COC(=O)COc3ccc(OC)cc3)nc2s1 -22.1%
O=C(CNC(=O)c1ccc(F)cc1)OCc1cc(=O)n2nc(C3CC3)sc2n1 1.82%
CCc1nc2nc(C)c(NS(=O)(=O)c3ccc(C(C)(C)C)cc3)c(=O)n2[nH]1 -6.62%
O=C(CCn1cnc2ccccc2c1=O)NCc1ccccc1Cl -13.4%
CCOC(=O)c1cc2c(=O)n3ccccc3nc2n(CCOC)c1=NC(=O)c1c(-c2ccccc2Cl)noc1C 0.707%
Cn1c(=O)oc2cc(S(=O)(=O)NCCC(=O)Nc3ccc(F)cc3F)ccc21 -7.71%
COc1cccc(-n2c(=O)c3sc4ccccc4c3n(CC(=O)NC3CCCCC3)c2=O)c1 -5.41%
Cc1c(NC(=O)c2ccc(-c3cccc([N+](=O)[O-])c3)o2)cccc1-c1nc2cc(Cl)ccc2o1 3.86%
O=C(NCCC1=CCCCC1)c1ccc2c(c1)N(Cc1cccc(Cl)c1)C(=O)c1ccccc1S2=O (stereo not drawn) -5.08%
CC(C)CCNC(=O)Cc1ccc(NC(=O)N2CCCCc3ccccc32)cc1 -7.97%
CCCCC(=O)NC1CC(=O)N(c2ccc3c(c2)OCCO3)C1 (stereo not drawn) -2.71%
Cc1ccc(S(=O)(=O)N(CC(=O)Nc2ccc3c(c2)OCO3)c2cc(Cl)cc(Cl)c2)cc1 -18.5%
Cc1cc(OCC(=O)Nc2ncn[nH]2)ccc1Cl -9%
CCN(CC)S(=O)(=O)c1ccc(OC)c(-n2cnnn2)c1 3.24%
CCc1ccc(CNC(=O)c2nn(-c3ccc(C)cc3)c(=O)c3c2c2ccccc2n3C)cc1 -25.9%
Cc1nc2c(-c3ccc(F)cc3)c(C)nn2c(C)c1CCC(=O)N1CCN(c2ccccc2)CC1 -31.8%
CCN(C(=O)Cn1nnc2sc3c(c2c1=O)CCC(C(C)(C)C)C3)c1cccc(C)c1 (stereo not drawn) -10.2%
CCCCn1c(SCC(=O)c2ccccc2)nc2c(sc3ccccc32)c1=O -6.26%
CCC1CN(S(=O)(=O)c2cc(-c3cc(C)no3)ccc2C)c2cc(C)ccc2O1 (stereo not drawn) -37.2%
Cc1ccc(-n2nc3ccc(NC(=O)COc4ccccc4C)cc3n2)cc1 -12.7%
COc1cc(CCC(=O)NCc2ccc3c(c2)CCN3C(=O)c2ccccc2)cc(OC)c1OC -13.7%
Cc1ccc(C)c(N2CCN(S(=O)(=O)c3cc(-c4cc(C)no4)ccc3C)CC2)c1 -30%
COc1ccc(-c2nnc(SCC(=O)NCCc3ccc(OC)c(OC)c3)nc2-c2ccc(OC)cc2)cc1 -11.5%
Cc1nc2cccnc2n1-c1cccc(C(=O)N2CCN(c3cccc(Cl)c3)CC2)c1 -6.98%
Cc1ccc(-n2nc(CO)c(C(=O)NCCCCc3ccccc3)n2)cc1C 0.688%
CSc1ccc(CCNC(=O)c2cc(C)nc3c2c(C)nn3-c2ccccc2)cc1 -9.83%
CC1=Nc2cc(C(=O)NCc3ccccc3Cl)ccc2Sc2c(C)ccc(C)c21 -0.554%
COc1ccc(-c2ccc3c(N)c(C(=O)Nc4ccc(C(F)(F)F)cc4)sc3n2)cc1OC -2.14%
O=C(CN1C(=O)C(c2ccc(F)cc2)=NC12CCCCCC2)Nc1ccccc1Cl -14.7%
CCCn1c(=O)n(-c2ccccc2Cl)c(=O)c2sc3ccccc3c21 -6.81%
Cc1cc(C)c(NC(=O)Cn2nc(-c3ccncc3)ccc2=O)c(C)c1 -19%
Cc1ccc(-c2noc(-c3ccccc3NC(=O)c3ccccc3)n2)cc1 -8.51%
CCC(=O)N1CCc2cc(Br)cc(S(=O)(=O)CCC(=O)NCc3ccccc3OC)c21 -26.8%
Cc1ccc(NC(=O)Cc2ccc(-n3c(C)nc4cccnc43)cc2)c(Cl)c1 -11.7%
CCOc1ccc(NC(=O)Cn2ncc3c2-c2cc(C)ccc2OC3)cc1 -11.9%
CCOC(=O)c1[nH]c(C)c(CCC(=O)N2CCN(c3cccc(OC)c3)CC2)c1C -13.4%
CCCCN(CC)C(=O)CSc1nc2n[nH]c(C)c2c(=N)n1-c1cccc(Cl)c1 -0.861%
